Experimental data: PubChem BioAssay AID652104 (National Center for Advancing Translational Sciences (NCATS), 2013)
In all, about 410,000 compounds went through this assay and about 7,200 (1.8%) were called active. The shares of active, inactive and inconclusive entries below differ from those in the screen. Calls come from the whole dose curve; as a rule, active = well fitted activation curve with a large enough effect; inconclusive = small, poorly fitted or top-dose-only effect, or another doubt; inactive = no such curve, though single readings can be large or run the other way. No potency is given beside an inconclusive call; the fits are too rough.

Assay: qHTS of TDP-43 Inhibitors; note: nearly all actives have a fitted effect of over 50% in size; for growth rescue (activation): % of control where 0% means no effect
Settings: TDP-43 expressing yeast growth rescue, BacTiter-Glo, 24 h; growth rescue (activation): at 46.1 µM (top of the series) unless noted
How it was run: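 Yeast cells expressing TDP-43 under galactose induction are exposed to compounds for 24 hr at 30 deg C. BacTiter-Glo luminescence measures growth, so protective compounds score as activators.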
Potency is the fitted concentration of half-maximal effect; tags give direction and shape of the fitted curve.

SMILES	Potency	growth rescue (activation)
CCC1Oc2ccc(C)cc2N(CC(=O)NCc2cccc(OC)c2)C1=O (stereo not drawn)	inconclusive [activator, single point]	
Cn1c(=O)c2c(nc(CN3CCN(c4ccccc4F)CC3)n2Cc2ccc(F)cc2)n(C)c1=O	inconclusive [activator, partial curve]	
Cc1[nH]n(C(N)=S)c(=O)c1N=Nc1ccc(Cl)cc1Cl	inconclusive [activator, single point]	
CC(C(=O)Nc1cc([N+](=O)[O-])ccc1Cl)N1CCN(c2ccccc2O)CC1 (stereo not drawn)	inconclusive [activator, partial curve]	
COc1ccccc1NC(=S)NCc1ccccc1Cl	inconclusive [activator, single point]	
O=C(COc1ccc2ccccc2c1Br)N1CCCCC1	inconclusive [activator, partial curve]	
CCOc1ccccc1NC(=O)N1CCC(C(=O)c2ccc(F)cc2)CC1	inconclusive [activator, single point]	
CC1=NN(C(=O)c2c(Br)c(C)nn2C)C(O)(C(F)(F)F)C1 (stereo not drawn)	inconclusive [activator, full curve, poor fit]	
O=C(N/N=C1\CCCCc2ccccc21)c1ccccn1	inconclusive [activator, partial curve]	
Cn1nc(C(=O)N2CCN(c3ccccc3F)CC2)c2c1-c1ccccc1S(=O)(=O)C2	inconclusive [activator, partial curve]	
CC(C)NC(=S)N(C)C1(c2ccccc2Cl)CCCCC1=O (stereo not drawn)	inconclusive [activator, partial curve]	
COc1ccc(C2CN=NC23CCCc2ccccc2C3=O)cc1 (stereo not drawn)	inconclusive [activator, partial curve]	
N#Cc1cccc(S(=O)(=O)NCCOc2ccccc2F)c1		inactive: 6.07%
CCCOc1ccc(C(=O)O)cc1	inconclusive [activator, full curve]	
C=CCNc1nc(-c2ccc(Cl)cc2)cs1	active: 11.2 µM	
COc1cccc(-c2nnc(NC(=O)c3ccc4ncsc4c3)o2)c1	inconclusive [activator, partial curve]	
Cc1nn(C(=O)CCCn2cc([N+](=O)[O-])cn2)c(C)c1Cl	inconclusive [activator, single point]	
COc1ccc(-c2nsc3c(N4CCN(C(=O)c5ccco5)CC4)ncnc23)cc1	inconclusive [activator, partial curve]	
CCCOc1ccc(CC(=O)NNC(=S)Nc2ccccc2)cc1Br	inconclusive [activator, partial curve, poor fit]	
COc1ccccc1NC(=O)c1nn(-c2ccc(Cl)cc2)ccc1=O	inconclusive [activator, full curve]	
Cc1ccc(NS(=O)(=O)c2ccc3nc(-c4ccccc4)[nH]c3c2)c(Br)c1		inactive: 0.941%
CCOC(=O)c1c(C)nc2ccc(Cl)cc2c1-c1ccccc1	inconclusive [activator, single point]	
O=C(OCc1ccccc1)/C(=C/c1cccc(Br)c1)NC(=O)c1ccco1	inconclusive [activator, single point]	

SMILES	Potency	growth rescue (activation)
COc1cc(C2(c3ccc(O)c(OC)c3)C(=O)Nc3c(C)cc(Br)cc32)ccc1O		inactive: 17.9%
C=C(C)C1Cc2c(C)nn(-c3cccc4ccccc34)c2C1 (stereo not drawn)	inconclusive [activator, single point]	
CCOc1ccc(CC(=O)NCc2ccc3c(c2)CCN3C(=O)c2ccccc2)cc1OCC		inactive: 0%
O=C(NC(=S)NNC(=O)c1ccco1)c1ccc(Br)cc1	active: 3.55 µM	
CCCCCCCCC(=O)O	inconclusive [activator, partial curve]	
O=C(Cc1ccc(Br)cc1)OCC(=O)c1ccc[nH]1	inconclusive [activator, single point]	
O=C(NCc1ccccn1)c1cc(Cl)ccc1OCc1ccccc1	inconclusive [activator, partial curve]	
COc1ccc(CCNCc2c(C(=O)O)c(C)n(Cc3cccc(Cl)c3)c2C)c(OC)c1OC		inactive: -6.1%
CC(=O)c1ccc(-n2c(CCC(=O)O)ccc2-c2cccs2)cc1	inconclusive [activator, partial curve]	
CCn1cc(C(=O)NCc2cccc(F)c2)c(=O)c2cc(F)c(N3CCN(C(=O)c4ccco4)CC3)cc21	inconclusive [activator, single point]	
CC(C)C(=O)Nc1nc2c(s1)CC(C(C)(C)C)CC2 (stereo not drawn)	inconclusive [activator, single point]	
C/C(CC(C)(C)C1CCCCC1)=N\NC(N)=S	inconclusive [activator, partial curve, poor fit]	
C=CCNC(=S)NC(=O)c1oc2ccccc2c1C	inconclusive [activator, partial curve]	
O=C1C=C(NC2CC2)C2(CCCCC2)O1		inactive: 7.93%
Cc1cc(S(=O)(=O)Nc2noc3ccccc23)ccc1F	active: 11.2 µM	
Cc1cc(C)c2c(CCl)cc(=O)oc2c1	active: 7.08 µM	
CN(C)c1ccc(C(=O)N2CCNC(=O)C2CC(=O)Nc2ccc(F)cc2)cc1 (stereo not drawn)	inconclusive [activator, single point]	
Cc1cccc(S(=O)(=O)NC(=O)C2(C)CCN2C(=O)C2(c3ccc(Cl)cc3)CC2)c1 (stereo not drawn)	inconclusive [activator, single point]	
O=C(OCc1cn([C@H]2C[C@H](c3ccc(Cl)cc3)N(Cc3cccs3)C[C@@H]2O)nn1)c1ccccc1	inconclusive [activator, full curve]	
O=C(C1CCCCC1)N1CCN=C1SCc1cccnc1	inconclusive [activator, partial curve]	
S=C(NCc1ccccc1)N1CCN(c2cccc(Cl)c2)CC1	inconclusive [activator, full curve]	
C(=N\Nc1nc2ccccc2s1)/c1ccc2c(c1)OCO2	inconclusive [activator, partial curve, poor fit]	
C=C1C(=O)C=C2CN(C(=O)c3ccccc3)[C@@](Cc3ccc(F)cc3)(C(=O)OC)[C@@H]12	inconclusive [activator, partial curve, poor fit]	

SMILES	Potency	growth rescue (activation)
Cc1cc(Br)cn2c(Cc3cccc(F)c3)c(C3CCCCC3)nc12	inconclusive [activator, partial curve]	
Cc1cc(NCCCCCCCNc2cc(C)nc3cc([N+](=O)[O-])ccc23)c2ccc([N+](=O)[O-])cc2n1	active: 14.1 µM	
CCOC(=O)c1[nH]c2ccc(OCC)cc2c1NC(=O)CN1CCN(c2ccccc2)CC1		inactive: 0%
CCOc1ccc(Cl)cc1-c1cc(C(=O)NCC2CCCCC2)[nH]n1	active: 14.1 µM	
Cc1cc(=O)[nH]c(SCCOc2ccc(OC(C)C)cc2)n1	inconclusive [activator, single point]	
CCOC(=O)c1c(NC(=O)c2cc(=O)c3cc(C)cc(C)c3o2)sc(C)c1C		inactive: 9.84%
Cc1coc2cc3oc(=O)ccc3cc12	inconclusive [activator, single point]	
O=C(CSc1nccn1C1CCCC1)Nc1cc(C(F)(F)F)ccc1Cl		inactive: 25.6%
Cc1ccccc1-c1cc(-c2ccccc2O)n[nH]1	active: 11.2 µM	
COC(=O)c1ccc(NC(=O)CSc2nnc3c4ccccc4n(C(C)C)c3n2)cc1	inconclusive [activator, single point]	
O=C(Cc1ccccc1)NCCc1cn2ccsc2n1	inconclusive [activator, partial curve]	
Cc1ccc(CSc2nnc(-c3ccco3)o2)cc1	inconclusive [activator, partial curve]	
CCc1nc2ccc(C(=O)N(C)CCCN(C)C)cn2c1N(CC)CCOC	inconclusive [activator, partial curve, poor fit]	
Cc1cccc(NC(=O)C(=O)NCC(c2ccc3c(c2)OCO3)N2CCN(c3ccccc3)CC2)c1 (stereo not drawn)		inactive: 5.91%
O=C(c1cc(-c2ccc(Cl)cc2Cl)on1)N1CCN(C(=O)c2ccco2)CC1	inconclusive [activator, partial curve]	
COc1ccccc1CNC(=O)CSc1ccc(-c2sc(-c3ccccc3)nc2C)nn1	inconclusive [activator, partial curve]	
O=C(c1cc(-c2cccc(Br)c2)nc2ccccc12)N1CCCC1	inconclusive [activator, single point]	
CCc1cccc2c(=O)c(C(=O)NCCN3CCOCC3)c[nH]c12		inactive: 5.69%
CC1(C)Cc2c(sc3nnn(Cc4ccc(Cl)cc4)c(=O)c23)CO1	active: 12.6 µM	
CCCCCCSc1ccc(-c2nc3ccc(C)cn3c2NC2CCCCC2)cc1	inconclusive [activator, partial curve]	
CC1C(=O)C(C)C(c2ccc([N+](=O)[O-])cc2)NC1c1ccc([N+](=O)[O-])cc1 (stereo not drawn)	inconclusive [activator, single point]	
Cc1ccc(S(=O)(=O)CC(CN2CCOCC2)N2CCOCC2)cc1 (stereo not drawn)	inconclusive [activator, partial curve]	
